Measured values as given in article PMC4336329 (PLoS ONE, 2015).
Screen size: about 310,000 compounds; about 2,200 (0.71%) showed an effect of 50% or more. The effect is printed as a negative number. Some of the results follow.

target: human ether-à-go-go-related gene (hERG) potassium channel (human, UniProt Q12809); experiment: primary screen, population patch clamp on CHO cells stably expressing hERG
Sequence (Q12809 whole entry, looked up): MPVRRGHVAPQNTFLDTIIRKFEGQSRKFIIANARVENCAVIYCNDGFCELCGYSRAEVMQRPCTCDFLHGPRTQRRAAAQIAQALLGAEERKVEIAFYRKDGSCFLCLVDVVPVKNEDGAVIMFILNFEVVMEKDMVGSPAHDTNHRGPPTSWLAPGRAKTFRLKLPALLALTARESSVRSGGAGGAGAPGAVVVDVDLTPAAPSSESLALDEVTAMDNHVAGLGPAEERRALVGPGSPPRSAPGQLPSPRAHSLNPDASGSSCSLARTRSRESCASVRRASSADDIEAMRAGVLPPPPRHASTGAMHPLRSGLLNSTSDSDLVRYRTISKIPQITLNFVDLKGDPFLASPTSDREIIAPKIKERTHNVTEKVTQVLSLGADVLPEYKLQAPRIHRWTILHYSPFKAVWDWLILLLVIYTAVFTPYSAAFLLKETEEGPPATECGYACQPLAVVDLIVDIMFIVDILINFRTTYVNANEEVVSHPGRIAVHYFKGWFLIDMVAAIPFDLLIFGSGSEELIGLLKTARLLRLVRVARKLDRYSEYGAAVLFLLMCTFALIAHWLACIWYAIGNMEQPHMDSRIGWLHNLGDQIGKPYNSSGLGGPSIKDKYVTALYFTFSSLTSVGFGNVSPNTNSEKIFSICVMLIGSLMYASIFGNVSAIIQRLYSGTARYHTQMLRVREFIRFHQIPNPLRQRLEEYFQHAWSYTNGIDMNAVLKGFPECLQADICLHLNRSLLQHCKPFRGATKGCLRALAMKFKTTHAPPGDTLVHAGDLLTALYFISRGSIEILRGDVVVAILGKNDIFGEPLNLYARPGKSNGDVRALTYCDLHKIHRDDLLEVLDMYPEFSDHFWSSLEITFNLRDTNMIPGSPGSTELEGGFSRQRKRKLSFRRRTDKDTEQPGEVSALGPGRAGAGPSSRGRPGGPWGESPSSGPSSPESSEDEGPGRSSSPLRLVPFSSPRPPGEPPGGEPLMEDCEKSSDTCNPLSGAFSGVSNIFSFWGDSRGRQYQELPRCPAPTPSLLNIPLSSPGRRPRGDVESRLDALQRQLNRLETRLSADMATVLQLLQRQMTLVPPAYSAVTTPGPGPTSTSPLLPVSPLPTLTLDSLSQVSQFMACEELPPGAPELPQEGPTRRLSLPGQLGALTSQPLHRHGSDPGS

Structure (SMILES)	hERG current change (%, negative = inhibition) at 1uM
CN1C(=O)/C(=C\c2ccc(OC(=O)c3ccco3)cc2)SC1=S	23%
CS(=O)(=O)c1ccc(C(=O)Nc2cc(-c3ccccc3)nn2-c2ccccc2)cc1	9.34%
Cn1nccc1C(=O)N1CCN(c2ncccn2)CC1	9.95%
CC(C)NC(=O)NC(=O)CSc1nnc(COc2ccccc2Cl)o1	-8.04%
CCc1ccc(NS(=O)(=O)c2cc3c(cc2C)n(C)c(=O)c(=O)n3C)cc1	1.44%
CN(N)c1nc(N2CCCC2)nc(N2CCCC2)n1	3.96%
COc1ccc(Cc2nnc(NC(=O)c3c(-c4ccccc4)noc3C)s2)cc1OC	-0.959%
CCN(CC)S(=O)(=O)c1ccc(NC(=O)c2ccc(Sc3nncn3C)c([N+](=O)[O-])c2)cc1	-1.23%
CC(NC(=O)C1=CC=CN2CCS(=O)(=O)N=C12)c1ccc(Cl)cc1Cl (centres unmarked)	-3.23%
CCCOc1cccc(CN2CCCCC2c2cccnc2)c1.Cl (centres unmarked)	10.5%
O=C(Nc1cccn(Cc2cccc(F)c2)c1=O)NC1CCCCC1	6.79%
COc1ccccc1/C=C(\C#N)C(=O)c1cccn1C	7.6%
O=C(NC(=S)NC1CCCCC1)c1ccccc1[N+](=O)[O-]	18.9%
O=C(CSc1nnc(Cn2c(=O)sc3ccccc32)n1CCc1ccccc1)N1CCCC1	5.76%
CC1(C(=O)NC2CCCCCC2)CCC(=O)N1Cc1ccc2c(c1)OCO2 (centres unmarked)	0.95%
COc1cccc(CNC(=O)CCC2CCCN(C(=O)c3ccc(C)nc3)C2)c1 (centres unmarked)	6.84%
C=CCN(CC=C)C(=O)CN1C(=O)NC(c2ccccc2)(c2ccccc2)C1=O	6.96%
COc1cc(-c2cc(C(=O)NCc3ccco3)c3ccccc3n2)cc(OC)c1OC	6.92%
O=C(NCCc1nnc2ccccn12)c1cccs1	8.58%
CCN(CC)S(=O)(=O)c1ccc(C)c(NCC(=O)Nc2ccc(C#N)c(Cl)c2)c1	0.676%
CCn1c(SCC(=O)N2CCN(c3ccc(Cl)cc3)CC2)nc2ccccc2c1=O	7.22%
COc1cc(C(=O)Nc2nc3ccc(C)cc3s2)ccc1OCc1c(C)noc1C	12.6%

Structure (SMILES)	hERG current change (%, negative = inhibition) at 1uM
Cc1ccccc1C(=O)NC1CCN(C(=O)N2CCOCC2)CC1	12.6%
CN1CCN(C(c2cccc(C(F)(F)F)c2)c2nnnn2Cc2ccccc2)CC1 (centres unmarked)	5.03%
O=C(O)Cn1c(SCc2ccccc2)nc2ccccc21	4.11%
CC(C(=O)NCc1ccc(F)cc1)c1ccc([N+](=O)[O-])cc1 (centres unmarked)	-5.52%
c1ccc2oc(-c3ccc(Nc4nc(N5CCCC5)nc(N5CCOCC5)n4)cc3)nc2c1	6.82%
COc1ccc(NC(=O)c2ccc(NS(=O)(=O)c3cccc4cccnc34)cc2)cc1	6.15%
C#CCOCCOCCOCCNc1nc(N2CCN(C(=O)CCCCCCCCCCNC(=O)Cn3cc(C[C@@H](C)O)nn3)CC2)nc(N2CCN(C(=O)CCCCCCCCCCNC(=O)Cn3cc(C[C@@H](C)O)nn3)CC2)n1	9.21%
CCc1ccc(-c2nc(CN3CCC(C(=O)NCc4ccccc4OC)CC3)c(C)o2)cc1	-13.1%
CCOC(=O)c1nnn(-c2nonc2N)c1CN(CC)c1ccccc1	6.79%
CC(=O)c1c(C)nc2ccccn12	4.91%
O=C(CSc1nc(Nc2ccccc2)nc(N2CCOCC2)n1)Nc1ccccc1Cl	2.86%
CCCCN1CN(Cc2ccco2)CNC1=S	9.96%
O=C(CNC(=O)c1ccc(F)cc1)NCc1ccccn1	1.31%
COCCOC(=O)c1c(NC(=O)CN2CCc3ccccc32)sc(C(N)=O)c1C	7.34%
CCN(CC)C(=O)C1=C(C)NC(=S)NC1c1cccs1 (centres unmarked)	13.7%
O=C(c1cc(=O)c2ccccc2o1)N1CCN(c2ccccc2)CC1	7.36%
COc1ccc(CC(=O)NCC2CCCN(Cc3ccc(F)cc3F)C2)cc1 (centres unmarked)	8.71%
O=C(O)COc1ccc2c(c1)CCCC2	17.3%
CC(=O)N1CCOc2ccc(S(=O)(=O)N3CCC(C(=O)Nc4ccc(F)cc4)CC3)cc21	7.88%
CC(C)CN(CCNC(=O)CC1Oc2ccccc2NC1=O)CC(C)C (centres unmarked)	2.25%
COC(=O)c1ccc2c(c1)NC(=O)C(N1CCCC1)S2 (centres unmarked)	-0.145%
COc1cc(C(=O)N=c2sc3ccccc3n2C)cc(OC)c1OC	14.8%
